This is an account of results in PMC4552016, “The Rsb Phosphoregulatory Network Controls Availability of the Primary Sigma Factor in Chlamydia trachomatis and Influences the Kinetics of Growth and Development” (PLoS Pathogens, 2015).

Assay [1] has as its target T1, σ^B (B. subtilis sigma factor B), BACTH fusion (Bacillus subtilis) (UniProt P06574).
T1 sequence: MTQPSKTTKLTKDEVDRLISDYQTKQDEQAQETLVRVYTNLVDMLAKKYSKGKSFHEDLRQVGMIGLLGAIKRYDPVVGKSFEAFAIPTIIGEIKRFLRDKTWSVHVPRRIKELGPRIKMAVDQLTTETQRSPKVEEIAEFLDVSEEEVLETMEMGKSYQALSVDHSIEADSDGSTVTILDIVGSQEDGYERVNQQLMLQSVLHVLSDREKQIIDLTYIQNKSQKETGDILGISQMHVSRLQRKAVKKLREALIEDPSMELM
Description: two-hybrid; bacterial adenylate cyclase two-hybrid (BACTH, EuroMedex) in DHM1 E. coli; cAMP-dependent lacZ reporter read by Miller assay; σ66 with RsbWCt in both cloning permutations.

Assay [2] concerns the target T2, σ^28 (C. trachomatis alternative sigma factor), BACTH fusion (Chlamydia trachomatis) (UniProt O84064).
T2 sequence: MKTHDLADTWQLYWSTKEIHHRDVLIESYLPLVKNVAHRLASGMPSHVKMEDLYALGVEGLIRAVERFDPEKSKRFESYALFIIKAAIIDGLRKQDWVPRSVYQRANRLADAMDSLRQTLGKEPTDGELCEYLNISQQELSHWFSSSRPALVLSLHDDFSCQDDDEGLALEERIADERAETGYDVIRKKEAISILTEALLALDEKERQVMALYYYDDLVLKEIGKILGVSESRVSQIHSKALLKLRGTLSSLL
The assay is described as above.

The target of assay [3] is T3, σ^66 (C. trachomatis primary sigma factor), BACTH fusion (Chlamydia trachomatis) (UniProt P18333).
T3 sequence: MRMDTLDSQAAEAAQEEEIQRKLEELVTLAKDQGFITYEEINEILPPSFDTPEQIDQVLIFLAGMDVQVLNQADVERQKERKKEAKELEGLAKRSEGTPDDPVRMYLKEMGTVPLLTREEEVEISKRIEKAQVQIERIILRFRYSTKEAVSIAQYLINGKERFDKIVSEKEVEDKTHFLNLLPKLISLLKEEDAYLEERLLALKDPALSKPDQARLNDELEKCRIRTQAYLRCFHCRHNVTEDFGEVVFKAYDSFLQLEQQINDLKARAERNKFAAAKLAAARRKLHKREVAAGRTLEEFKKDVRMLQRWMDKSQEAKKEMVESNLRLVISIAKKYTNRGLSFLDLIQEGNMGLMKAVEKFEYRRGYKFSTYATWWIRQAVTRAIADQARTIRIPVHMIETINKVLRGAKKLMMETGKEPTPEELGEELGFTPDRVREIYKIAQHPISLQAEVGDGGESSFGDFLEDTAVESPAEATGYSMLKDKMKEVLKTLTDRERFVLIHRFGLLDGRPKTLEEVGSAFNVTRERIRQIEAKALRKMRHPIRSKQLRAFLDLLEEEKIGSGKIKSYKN
The assay is described as above.

Assay [4] has as its target T4, σ^54 (C. trachomatis alternative sigma factor), BACTH fusion (Chlamydia trachomatis) (UniProt O84615).
T4 sequence: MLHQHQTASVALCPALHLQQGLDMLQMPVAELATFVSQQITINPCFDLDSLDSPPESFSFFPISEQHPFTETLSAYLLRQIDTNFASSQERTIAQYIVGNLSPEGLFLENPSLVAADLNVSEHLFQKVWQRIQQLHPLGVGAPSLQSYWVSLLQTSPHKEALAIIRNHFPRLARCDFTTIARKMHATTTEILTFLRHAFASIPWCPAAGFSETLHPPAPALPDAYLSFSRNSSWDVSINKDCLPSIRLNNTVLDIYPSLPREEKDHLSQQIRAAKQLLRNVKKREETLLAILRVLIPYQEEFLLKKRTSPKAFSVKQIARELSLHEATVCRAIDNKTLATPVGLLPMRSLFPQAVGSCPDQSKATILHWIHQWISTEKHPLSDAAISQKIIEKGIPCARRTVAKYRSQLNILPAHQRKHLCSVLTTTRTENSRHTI
The description is as above.

Assay [5] deals with T5, σ^54, recombinant purified, amine-coupled SPR ligand (Chlamydia trachomatis) (UniProt O84615).
T5 sequence: T4 sequence
Description: SPR; Biacore 3000, CM5 chip; σ66, σ28 and σ54 amine-coupled to consecutive flow cells, RsbWCt analyte at various concentrations; reference flow cell with immobilized GST; Req as percent of theoretical Rmax; 10mM HEPES, 150mM NaCl, 1mM MgCl2, 30°C; both purified.

Assay [6] addresses T6, σ^28, recombinant purified, amine-coupled SPR ligand (Chlamydia trachomatis) (UniProt O84064).
T6 sequence: T2 sequence
The assay is described as above.

No constants are given. Whether binding was seen depends on the method and setting. Some entries that bind do so weakly or less than the wild type. For some of these results: Where a sequence is shown, tags or fusion partners need not be part of it.

B1: RsbTBs (B. subtilis RsbT, paralogue of RsbWBs), BACTH fusion (protein, UniProt P42411 1-133)
chain: MNDQSCVRIMTEWDIVAARQLGRNVAKELGFGTVDQARITTAISELARNIYLYAGKGQIGIEQVADRGKKGLKIIAEDQGPGIPDIRKVMEDGFSTSGGLGAGLPGVKRLMDEFSLNSVAGEGTEIQAIKWLR
Regarding B1, the binding result in assay [1] is on record as “no binding”.

B2: RsbWBs (B. subtilis anti-sigma factor RsbW), BACTH fusion (protein, UniProt P17904 1-160)
chain: MKNNADYIEMKVPAQPEYVGIIRLTLSGVASRMGYTYDEIEDLKIAVSEACTNAVQHAYKEDKNGEVSIRFGVFEDRLEVIVADEGDSFDFDQKQQDLGPYTPSHTVDQLSEGGLGLYLMETLMDEVRVQNHSGVTVAMTKYLNGERVDHDTTIKNYETN
On to B2, for which, in assay [1], the binding result is given as “binds”.

B3: RsbWCt (C. trachomatis switch-protein kinase analogue RsbW), BACTH fusion (protein, UniProt O84553 1-146)
chain: MTFSEGEQVFPATLQDLYPMLDFVKRAGVHCNCTQKKLSKLELACEELLLNIITHAYKGLPSTGWIRILCTETPDALLVRITDHGPAFNPITASPDIMRLDLPIEQRRIGGLGIFLAKYSVDVFDYERVNDTNVVTLTLYTKPHNS
Take B3: the binding result in assay [2] is “no binding”; in assay [3], “binds”; in assay [4], “no binding”.

B4: RsbWCt, recombinant purified (SPR analyte) (natural protein, Chlamydia trachomatis, UniProt O84553 1-146, looked up)
chain: B3 chain
notes: RsbW of Chlamydia trachomatis, cloned from serovar D/UW/CX genomic DNA; also called CT549; source: PC2 E. coli, pGEX-derived vector, purified
For B4, the binding entry in assay [5] and in assay [6] was “no binding” each time.
